Here are results for four molecules from article PMC6197184.

Amino acid sequences for entries named in this document (tags omitted). Residues count along the entry.
UniProt P19838, residues 1-433: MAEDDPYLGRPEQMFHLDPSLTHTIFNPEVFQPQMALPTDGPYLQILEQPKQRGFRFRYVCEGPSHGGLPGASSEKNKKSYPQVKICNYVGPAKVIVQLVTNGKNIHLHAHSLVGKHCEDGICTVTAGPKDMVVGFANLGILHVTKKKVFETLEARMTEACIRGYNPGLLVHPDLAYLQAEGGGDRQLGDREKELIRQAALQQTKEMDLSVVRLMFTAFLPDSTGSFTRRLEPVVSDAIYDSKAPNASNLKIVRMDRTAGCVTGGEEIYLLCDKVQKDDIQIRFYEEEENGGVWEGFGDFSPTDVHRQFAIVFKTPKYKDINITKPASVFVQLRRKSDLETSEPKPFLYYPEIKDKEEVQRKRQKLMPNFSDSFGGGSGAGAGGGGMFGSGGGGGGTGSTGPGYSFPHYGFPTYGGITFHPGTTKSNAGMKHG
UniProt Q96EP0: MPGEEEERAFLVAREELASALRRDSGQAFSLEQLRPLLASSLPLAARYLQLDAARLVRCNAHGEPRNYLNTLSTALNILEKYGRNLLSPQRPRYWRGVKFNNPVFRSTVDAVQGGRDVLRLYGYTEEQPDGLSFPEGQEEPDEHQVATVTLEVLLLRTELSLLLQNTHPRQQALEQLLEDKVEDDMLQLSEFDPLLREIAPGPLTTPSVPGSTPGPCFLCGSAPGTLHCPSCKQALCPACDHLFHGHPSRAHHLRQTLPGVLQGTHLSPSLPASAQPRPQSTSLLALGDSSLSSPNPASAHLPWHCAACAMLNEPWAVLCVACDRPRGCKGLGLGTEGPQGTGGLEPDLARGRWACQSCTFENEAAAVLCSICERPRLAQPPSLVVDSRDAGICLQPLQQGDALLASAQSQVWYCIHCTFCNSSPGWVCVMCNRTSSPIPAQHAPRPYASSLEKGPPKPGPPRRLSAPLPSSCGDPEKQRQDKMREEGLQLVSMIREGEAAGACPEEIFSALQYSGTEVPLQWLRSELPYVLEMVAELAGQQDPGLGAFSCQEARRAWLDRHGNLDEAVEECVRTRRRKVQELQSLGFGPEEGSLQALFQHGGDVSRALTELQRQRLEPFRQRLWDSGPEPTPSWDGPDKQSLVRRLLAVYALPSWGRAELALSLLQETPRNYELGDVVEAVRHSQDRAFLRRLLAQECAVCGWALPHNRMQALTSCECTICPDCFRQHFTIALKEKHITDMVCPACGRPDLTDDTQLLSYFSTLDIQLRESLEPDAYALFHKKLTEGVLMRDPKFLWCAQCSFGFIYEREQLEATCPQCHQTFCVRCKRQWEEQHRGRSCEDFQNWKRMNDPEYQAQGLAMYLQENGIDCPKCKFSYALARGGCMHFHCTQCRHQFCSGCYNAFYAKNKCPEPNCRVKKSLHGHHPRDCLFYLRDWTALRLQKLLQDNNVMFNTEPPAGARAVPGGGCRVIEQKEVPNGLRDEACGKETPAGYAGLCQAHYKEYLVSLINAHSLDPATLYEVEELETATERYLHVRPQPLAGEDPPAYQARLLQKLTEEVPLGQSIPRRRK
UniProt Q04206: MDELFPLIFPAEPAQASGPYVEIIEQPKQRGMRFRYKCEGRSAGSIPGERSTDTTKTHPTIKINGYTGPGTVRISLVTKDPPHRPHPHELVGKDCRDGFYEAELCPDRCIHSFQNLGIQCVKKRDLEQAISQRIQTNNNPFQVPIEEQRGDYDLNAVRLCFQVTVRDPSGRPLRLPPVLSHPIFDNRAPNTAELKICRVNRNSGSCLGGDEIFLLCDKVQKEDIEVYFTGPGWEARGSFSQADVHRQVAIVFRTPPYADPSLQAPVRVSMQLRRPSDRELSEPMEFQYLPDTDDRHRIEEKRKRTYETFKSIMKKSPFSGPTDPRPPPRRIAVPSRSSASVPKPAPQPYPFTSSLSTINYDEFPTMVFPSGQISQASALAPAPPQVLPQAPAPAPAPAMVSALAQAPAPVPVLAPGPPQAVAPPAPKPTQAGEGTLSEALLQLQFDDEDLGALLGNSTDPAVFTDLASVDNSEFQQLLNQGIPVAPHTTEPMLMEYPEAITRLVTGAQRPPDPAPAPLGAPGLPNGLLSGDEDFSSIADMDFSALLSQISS

No constants are given. Whether binding was seen depends on the method and setting. In cells and extracts the contact can be indirect. Some results given as binding are weak or reduced against the parent protein; the word gives no strength. For some assays here: Tags and fused reporters may be left off the sequences shown.

In experiment [1] the target is T1, Flag-TAB2 (full-length TAK1-binding protein 2) (UniProt Q9NYJ8).
T1 sequence: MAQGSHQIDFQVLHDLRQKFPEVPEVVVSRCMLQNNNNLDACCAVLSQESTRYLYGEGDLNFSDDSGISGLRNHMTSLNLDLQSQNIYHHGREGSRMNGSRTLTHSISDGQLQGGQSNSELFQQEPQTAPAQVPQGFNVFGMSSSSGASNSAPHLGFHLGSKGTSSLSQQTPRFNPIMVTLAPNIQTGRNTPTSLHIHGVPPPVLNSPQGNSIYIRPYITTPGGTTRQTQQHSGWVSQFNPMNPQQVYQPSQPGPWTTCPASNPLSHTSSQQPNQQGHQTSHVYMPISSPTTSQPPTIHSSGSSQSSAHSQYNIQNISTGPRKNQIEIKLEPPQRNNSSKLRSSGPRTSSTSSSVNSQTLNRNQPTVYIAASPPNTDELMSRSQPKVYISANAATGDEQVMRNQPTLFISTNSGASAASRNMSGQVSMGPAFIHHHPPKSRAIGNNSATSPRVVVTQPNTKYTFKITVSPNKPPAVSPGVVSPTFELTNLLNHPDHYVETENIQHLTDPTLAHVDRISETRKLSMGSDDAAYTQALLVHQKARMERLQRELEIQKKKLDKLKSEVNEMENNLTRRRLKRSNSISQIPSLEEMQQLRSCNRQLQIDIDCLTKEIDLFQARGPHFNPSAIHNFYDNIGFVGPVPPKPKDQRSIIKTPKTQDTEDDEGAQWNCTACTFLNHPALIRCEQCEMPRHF
The experiment in a line: co-IP; 293T cells co-transfected with tagged proteins; lysates immunoprecipitated with tag antibodies and protein G beads at 4 °C overnight, washed with IP buffer (50 mM Tris-HCl pH 7.4, 150 mM NaCl, 1% Nonidet P40), immunoblot; reciprocal; competition co-IP with CYPJ overexpression. (In general: In western blotting, separated proteins are transferred to a membrane and probed.)

Experiment [2] has as its target T2, Flag-TAB3 (UniProt Q8N5C8).
T2 sequence: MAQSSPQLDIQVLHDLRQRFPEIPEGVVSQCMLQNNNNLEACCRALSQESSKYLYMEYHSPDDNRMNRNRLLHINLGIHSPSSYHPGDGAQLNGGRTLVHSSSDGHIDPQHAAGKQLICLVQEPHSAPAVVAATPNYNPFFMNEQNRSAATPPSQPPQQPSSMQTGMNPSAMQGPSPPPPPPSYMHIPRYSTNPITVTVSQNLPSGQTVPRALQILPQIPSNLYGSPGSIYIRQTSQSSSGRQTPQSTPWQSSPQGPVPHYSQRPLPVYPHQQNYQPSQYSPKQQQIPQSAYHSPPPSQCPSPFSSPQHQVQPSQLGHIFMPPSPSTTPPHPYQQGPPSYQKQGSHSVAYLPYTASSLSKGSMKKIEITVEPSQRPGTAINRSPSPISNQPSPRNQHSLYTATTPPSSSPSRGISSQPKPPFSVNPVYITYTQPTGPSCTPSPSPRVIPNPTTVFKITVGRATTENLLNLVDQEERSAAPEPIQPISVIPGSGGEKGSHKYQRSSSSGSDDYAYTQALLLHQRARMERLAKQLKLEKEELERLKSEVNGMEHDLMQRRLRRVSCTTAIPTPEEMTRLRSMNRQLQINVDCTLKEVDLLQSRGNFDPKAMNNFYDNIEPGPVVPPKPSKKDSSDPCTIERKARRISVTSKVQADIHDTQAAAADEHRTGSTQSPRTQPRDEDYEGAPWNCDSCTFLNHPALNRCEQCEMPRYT
The experiment is described as above.

In experiment [3] the target is p50 (UniProt P19838). The description is as above.
Experiment [4] deals with HOIP (UniProt Q96EP0). Described as above.
In experiment [5] the target is p65 (UniProt Q04206). Described as above.
For experiment [6], the target named is T3, TRAF2 (UniProt Q12933).
T3 sequence: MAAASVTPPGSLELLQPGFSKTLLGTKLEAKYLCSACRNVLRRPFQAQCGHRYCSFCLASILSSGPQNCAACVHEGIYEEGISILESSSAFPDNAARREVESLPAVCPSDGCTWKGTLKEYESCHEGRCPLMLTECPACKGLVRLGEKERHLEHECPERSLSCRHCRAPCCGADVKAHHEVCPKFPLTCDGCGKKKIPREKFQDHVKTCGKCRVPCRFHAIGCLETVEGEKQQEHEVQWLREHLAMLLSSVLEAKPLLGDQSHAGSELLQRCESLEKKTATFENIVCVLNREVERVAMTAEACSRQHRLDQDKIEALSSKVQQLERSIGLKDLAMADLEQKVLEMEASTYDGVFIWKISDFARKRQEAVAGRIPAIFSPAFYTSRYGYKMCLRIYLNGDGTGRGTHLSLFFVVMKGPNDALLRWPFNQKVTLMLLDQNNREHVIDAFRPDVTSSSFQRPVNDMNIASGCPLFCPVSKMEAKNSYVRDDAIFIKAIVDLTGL
Described as above.

Experiment [7] has as its target T4, TAK1 (transforming growth factor β-activated kinase 1) (UniProt O43318).
T4 sequence: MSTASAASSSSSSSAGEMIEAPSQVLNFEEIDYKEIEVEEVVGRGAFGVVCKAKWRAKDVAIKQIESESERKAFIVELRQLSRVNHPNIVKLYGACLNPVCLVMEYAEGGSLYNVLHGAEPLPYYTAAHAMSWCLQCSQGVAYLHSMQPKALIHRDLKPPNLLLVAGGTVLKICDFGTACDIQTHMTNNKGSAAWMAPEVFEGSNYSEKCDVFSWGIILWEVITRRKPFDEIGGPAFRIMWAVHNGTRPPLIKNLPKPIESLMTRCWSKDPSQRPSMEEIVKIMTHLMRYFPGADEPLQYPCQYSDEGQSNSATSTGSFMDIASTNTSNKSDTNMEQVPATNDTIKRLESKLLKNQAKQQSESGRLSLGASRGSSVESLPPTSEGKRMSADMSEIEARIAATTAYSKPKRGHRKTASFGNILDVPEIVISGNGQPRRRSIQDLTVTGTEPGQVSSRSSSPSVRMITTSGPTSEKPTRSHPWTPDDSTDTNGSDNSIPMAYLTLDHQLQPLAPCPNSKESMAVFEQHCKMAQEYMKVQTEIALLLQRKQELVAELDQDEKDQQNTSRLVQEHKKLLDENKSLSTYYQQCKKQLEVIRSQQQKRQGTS
The experiment is described as above.

The target of experiment [8] is T5, GST-TAB2 FL (GST-fused full-length TAB2) (UniProt Q9NYJ8).
T5 sequence: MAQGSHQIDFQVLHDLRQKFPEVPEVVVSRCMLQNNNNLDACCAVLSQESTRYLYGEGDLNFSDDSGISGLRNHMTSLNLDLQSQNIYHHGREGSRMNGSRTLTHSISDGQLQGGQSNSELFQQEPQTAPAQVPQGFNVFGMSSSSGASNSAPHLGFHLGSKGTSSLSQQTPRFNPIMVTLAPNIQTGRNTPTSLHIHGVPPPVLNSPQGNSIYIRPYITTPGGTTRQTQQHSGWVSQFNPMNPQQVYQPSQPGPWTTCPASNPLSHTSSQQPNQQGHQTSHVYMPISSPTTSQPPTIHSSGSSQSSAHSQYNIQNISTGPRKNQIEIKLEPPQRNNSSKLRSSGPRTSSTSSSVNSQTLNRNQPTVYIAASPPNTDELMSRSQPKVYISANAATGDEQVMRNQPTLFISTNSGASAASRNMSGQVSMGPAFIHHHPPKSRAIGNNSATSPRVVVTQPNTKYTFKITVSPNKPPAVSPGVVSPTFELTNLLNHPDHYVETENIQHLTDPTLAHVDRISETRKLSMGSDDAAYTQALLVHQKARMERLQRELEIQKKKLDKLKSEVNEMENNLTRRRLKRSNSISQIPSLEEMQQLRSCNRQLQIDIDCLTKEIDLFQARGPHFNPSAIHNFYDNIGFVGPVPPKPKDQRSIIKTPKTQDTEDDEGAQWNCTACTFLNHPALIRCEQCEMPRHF
The experiment in a line: pull-down; GST or GST fusion proteins from E. coli on Glutathione Sepharose 4B incubated with lysates of transfected 293T cells at 4 °C overnight; washed with PBS or IP buffer; immunoblot; only the target purified.

Experiment [9] deals with T6, endogenous TAB3 (human (endogenous in 293T)) (UniProt Q8N5C8).
T6 sequence: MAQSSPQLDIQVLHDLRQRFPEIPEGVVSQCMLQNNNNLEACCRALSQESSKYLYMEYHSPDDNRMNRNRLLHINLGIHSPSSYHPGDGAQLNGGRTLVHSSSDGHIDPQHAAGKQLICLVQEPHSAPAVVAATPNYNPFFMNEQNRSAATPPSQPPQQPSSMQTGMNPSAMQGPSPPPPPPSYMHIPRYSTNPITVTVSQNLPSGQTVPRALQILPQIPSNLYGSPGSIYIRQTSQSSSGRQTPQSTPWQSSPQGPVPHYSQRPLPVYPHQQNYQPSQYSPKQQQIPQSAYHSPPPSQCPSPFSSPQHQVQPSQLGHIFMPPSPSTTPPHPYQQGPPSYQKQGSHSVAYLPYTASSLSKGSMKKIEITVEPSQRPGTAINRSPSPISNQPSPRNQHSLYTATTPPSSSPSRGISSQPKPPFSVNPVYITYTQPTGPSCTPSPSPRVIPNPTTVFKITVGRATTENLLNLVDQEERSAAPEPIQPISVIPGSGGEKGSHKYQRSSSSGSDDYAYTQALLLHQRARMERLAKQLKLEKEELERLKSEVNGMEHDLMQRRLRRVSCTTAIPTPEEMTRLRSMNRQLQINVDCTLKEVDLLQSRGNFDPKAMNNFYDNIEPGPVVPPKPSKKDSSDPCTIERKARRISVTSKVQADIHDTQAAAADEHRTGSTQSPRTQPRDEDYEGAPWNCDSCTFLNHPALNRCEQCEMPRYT
The experiment in a line: co-IP; endogenous proteins; lysates of 293T cells (WT or CYPJ-knockout) treated with or without TNF for different times; IP with anti-TAB2, anti-TAB3 or control IgG; immunoblot with anti-CYPJ or anti-K63 Ub.

The target of experiment [10] is T7, endogenous TAB2 (human (endogenous in 293T)) (UniProt Q9NYJ8).
T7 sequence: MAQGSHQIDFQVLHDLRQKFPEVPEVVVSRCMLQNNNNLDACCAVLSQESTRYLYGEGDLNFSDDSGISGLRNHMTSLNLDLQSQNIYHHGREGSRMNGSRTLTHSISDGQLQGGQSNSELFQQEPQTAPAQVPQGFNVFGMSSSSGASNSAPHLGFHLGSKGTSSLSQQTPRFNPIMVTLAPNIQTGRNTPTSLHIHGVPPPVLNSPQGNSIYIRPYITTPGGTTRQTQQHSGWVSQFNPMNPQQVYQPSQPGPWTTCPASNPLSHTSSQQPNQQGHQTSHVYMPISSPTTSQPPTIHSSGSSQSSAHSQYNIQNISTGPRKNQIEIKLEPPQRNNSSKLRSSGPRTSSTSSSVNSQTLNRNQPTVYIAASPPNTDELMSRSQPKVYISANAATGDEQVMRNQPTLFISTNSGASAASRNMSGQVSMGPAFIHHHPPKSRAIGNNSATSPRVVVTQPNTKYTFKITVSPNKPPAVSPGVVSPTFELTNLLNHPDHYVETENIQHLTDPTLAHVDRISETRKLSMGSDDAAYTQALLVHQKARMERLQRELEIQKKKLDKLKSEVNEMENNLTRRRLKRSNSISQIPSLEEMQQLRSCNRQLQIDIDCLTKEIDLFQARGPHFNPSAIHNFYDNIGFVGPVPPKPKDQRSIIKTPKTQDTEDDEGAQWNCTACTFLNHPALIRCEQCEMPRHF
The description is as above.

In experiment [11] the target is T1, Flag-TAB2 (full-length TAK1-binding protein 2). Briefly: co-IP; ubiquitin assay: 293T cells (WT or CYPJ-knockout) transfected with HA-Ub or its mutants and Flag-TAB2/3 or mutants, with or without Myc-CYPJ; IP with anti-Flag antibody and protein G beads at 4 °C overnight; polyubiquitin detected with anti-HA.
Experiment [12] addresses T2, Flag-TAB3. Described as above.

B1: TAK1 (transforming growth factor β-activated kinase 1) (protein, UniProt O43318 1-606)
chain: MSTASAASSSSSSSAGEMIEAPSQVLNFEEIDYKEIEVEEVVGRGAFGVVCKAKWRAKDVAIKQIESESERKAFIVELRQLSRVNHPNIVKLYGACLNPVCLVMEYAEGGSLYNVLHGAEPLPYYTAAHAMSWCLQCSQGVAYLHSMQPKALIHRDLKPPNLLLVAGGTVLKICDFGTACDIQTHMTNNKGSAAWMAPEVFEGSNYSEKCDVFSWGIILWEVITRRKPFDEIGGPAFRIMWAVHNGTRPPLIKNLPKPIESLMTRCWSKDPSQRPSMEEIVKIMTHLMRYFPGADEPLQYPCQYSDEGQSNSATSTGSFMDIASTNTSNKSDTNMEQVPATNDTIKRLESKLLKNQAKQQSESGRLSLGASRGSSVESLPPTSEGKRMSADMSEIEARIAATTAYSKPKRGHRKTASFGNILDVPEIVISGNGQPRRRSIQDLTVTGTEPGQVSSRSSSPSVRMITTSGPTSEKPTRSHPWTPDDSTDTNGSDNSIPMAYLTLDHQLQPLAPCPNSKESMAVFEQHCKMAQEYMKVQTEIALLLQRKQELVAELDQDEKDQQNTSRLVQEHKKLLDENKSLSTYYQQCKKQLEVIRSQQQKRQGTS
In the case of B1, the binding result in experiment [1] and in experiment [2] was “binds” each time.

B2: HA-CYPJ (HA-tagged full-length cyclophilin J) (protein, UniProt Q9H2H8 1-161)
chain: MSVTLHTDVGDIKIEVFCERTPKTCENFLALCASNYYNGCIFHRNIKGFMVQTGDPTGTGRGGNSIWGKKFEDEYSEYLKHNVRGVVSMANNGPNTNGSQFFITYGKQPHLDMKYTVFGKVIDGLETLDELEKLPVNEKTYRPLNDVHIKDITIHANPFAQ
For B2, the binding result in experiment [3] is recorded as “no binding”; in [4], “binds”; in experiment [1], “binds”; in [5] it was “no binding”; in experiment [6], “no binding”; in [7], “no binding”. For the same molecule, the binding result in [2] and in [8] was “binds” in each case.

B3: endogenous CYPJ (protein, UniProt Q9H2H8 1-161)
chain: MSVTLHTDVGDIKIEVFCERTPKTCENFLALCASNYYNGCIFHRNIKGFMVQTGDPTGTGRGGNSIWGKKFEDEYSEYLKHNVRGVVSMANNGPNTNGSQFFITYGKQPHLDMKYTVFGKVIDGLETLDELEKLPVNEKTYRPLNDVHIKDITIHANPFAQ
As to B3, the binding entry in [9] and in experiment [10] was “binds” each time.

B4: Myc-CYPJ (protein, UniProt Q9H2H8 1-161)
chain: MSVTLHTDVGDIKIEVFCERTPKTCENFLALCASNYYNGCIFHRNIKGFMVQTGDPTGTGRGGNSIWGKKFEDEYSEYLKHNVRGVVSMANNGPNTNGSQFFITYGKQPHLDMKYTVFGKVIDGLETLDELEKLPVNEKTYRPLNDVHIKDITIHANPFAQ
Take B4: the binding result in [11] and in [12] was “binds” throughout.
